In PubChem BioAssay AID588855 (National Center for Advancing Translational Sciences (NCATS), 2011):
Hit rate of the full screen: of about 410,000 compounds, about 5,000 (1.2%) were called active. The inconclusive results got no clear call from the source; some entries with a clear call stand among them for comparison. Calls follow the shape of the dose curve; as a rule, active = well fitted inhibition curve with a large enough effect; inconclusive = small, poorly fitted or top-dose-only effect; inactive = no such curve, though single readings can be large or run the other way. Where the call is inconclusive, the potency comes from a doubtful curve fit.

Experiment: qHTS for Inhibitors of TGF-b; also: nearly all actives have a fitted effect of over 65% in size
Conditions: HepG2 CAGA-GFP TGF-b/SMAD3 reporter, GFP fluorescence, 18 h, TGF-beta stimulated, 500 pg/mL final; series mostly up to 46.1 µM; activity, negative = inhibition: at the top concentration
How it was run: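 Read-out: total well GFP (ex488/em500-530) summed from mean per-cell fluorescence. Cells: HEPG2 CAGA-GFP, 1% FBS DMEM, 18 h at 37 degrees C with 500 pg/mL final TGF-beta. Unstimulated wells served as the full-inhibition control; stimulated DMSO wells = 0%.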
% is scaled to controls: 0 for no effect and ±100 for the full control effect; potency is read from the fitted curve at half-maximal effect; tags tell the direction and shape of the fitted curve.

Row | Structure (SMILES) | Potency | activity, negative = inhibition
1 | CCCCCC(=O)N1C[C@H](n2cc(-c3ccc(F)cc3)nn2)[C@@H](O)C[C@@H]1c1ccc(C)cc1 | inconclusive: 28.2 µM [inhibitor, single point] | –
2 | COc1ccccc1-c1nc(C#N)c(N2CCN(Cc3ccccc3)CC2)o1 | – | inactive: -1.65%
3 | O=C(N/N=C/c1ccc([N+](=O)[O-])s1)c1ccccc1 | active: 11.2 µM | –
4 | O=C(O)C#CC(=O)O | inconclusive: 17.8 µM [inhibitor, single point] | –
5 | CCOc1ccc(OCCOCCOc2ccccc2Cl)cc1 | inconclusive: 22.4 µM [inhibitor, single point] | –
6 | Cc1ccc(S(=O)(=O)c2nc(-c3cccs3)oc2SCC(=O)Nc2cc(C)cc(C)c2)cc1 | inconclusive: 25.1 µM [inhibitor, single point] | –
7 | O=S(=O)(c1ccccc1F)N1CCN(CCc2ccccc2)CC1 | inconclusive: 5.01 µM [inhibitor, partial curve, poor fit] | –
8 | COC(=O)Cc1c(O)ccn(CCc2ccc(OC)c(OC)c2)c1=O | inconclusive: 5.62 µM [inhibitor, single point] | –
9 | CCOC(=O)c1ccccc1NC1c2ccccc2C(=O)N1C1CCN(C(=O)OCC)CC1 (stereo unspecified) | inconclusive: 35.5 µM [inhibitor, single point] | –
10 | Cc1cc2oc(C(=O)NCC(c3ccco3)N3CCCC3)c(C)c2cc1C (stereo unspecified) | inconclusive: 17.8 µM [inhibitor, partial curve, poor fit] | –
11 | Cc1cc(OCc2cc(C(=O)NC(C)c3c(C)nn(C)c3C)no2)cc(C)c1Cl (stereo unspecified) | active: 11.2 µM | –
12 | Cc1nnc(N/N=C/c2ccccc2C(F)(F)F)n1N | inconclusive: 25.1 µM [inhibitor, single point] | –
13 | COc1c(C)cc(C(O)c2ncc(-c3cccc(C(F)(F)F)c3)[nH]2)cc1C (stereo unspecified) | inconclusive: 22.4 µM [inhibitor, partial curve] | –
14 | Cc1ncc(CO)c2c1Oc1nc(-c3ccccc3)nc(SCC(=O)N3CCOCC3)c1C2 | inconclusive: 35.5 µM [inhibitor, single point] | –
15 | Cc1ccc(Nc2c3c(nc4nc(-c5cccs5)nn24)CCCC3)cc1F | inconclusive: 2.82 µM [inhibitor, single point] | –
16 | COC(=O)c1onc(-c2c(OC)cc(OC)cc2OC)c1C(=O)OC | inconclusive: 0.251 µM [inhibitor, full curve, poor fit] | –
17 | Cc1oc(-c2ccc(Cl)cc2)nc1CS(=O)CC(=O)NCCc1ccccc1 (stereo unspecified) | inconclusive: 12.6 µM [inhibitor, partial curve] | –
18 | C#CCOc1c(Cl)cc(/C=C2/C(=O)ON=C2C)cc1OC | – | inactive: 4.45%
19 | O=C(COC(=O)CNC(=O)c1ccc(Cl)cc1Cl)NCc1ccco1 | – | inactive: 2.87%
20 | CCOc1ccc2nc(Cl)c(/C=C/C(=O)c3ccco3)cc2c1 | inconclusive: 8.91 µM [inhibitor, partial curve, poor fit] | –
21 | COc1ccc(S(=O)(=O)NCCc2sc3nc(-c4ccc(C)cc4)nn3c2C)cc1C | inconclusive: 22.4 µM [inhibitor, single point] | –

Row | Structure (SMILES) | Potency | activity, negative = inhibition
22 | CC(C)NC(=S)NN=C1CCCCCCCCCCC1 | inconclusive: 2.51 µM [inhibitor, full curve] | –
23 | CCOC(=O)c1cc(-c2ccccc2)n(CCC(=O)NCCc2cccc(C)c2)c1C | inconclusive: 14.1 µM [inhibitor, partial curve, poor fit] | –
24 | CCOC(=O)c1c(NC(=O)COC(=O)c2cc(OC)c(OC)cc2[N+](=O)[O-])sc(C)c1CC | – | inactive: 2.25%
25 | O=C(NC(c1ccc(Cl)cc1)c1cccnc1)C1CCN(CCOc2ccc(Cl)cc2Cl)CC1 (stereo unspecified) | inconclusive: 35.5 µM [inhibitor, single point] | –
26 | O=C(NCc1ccc(F)cc1)c1cc2cccc3c2n1CCS3 | inconclusive: 35.5 µM [inhibitor, single point] | –
27 | Cc1ccc(C2(C)NC(=O)N(CC(=O)NCc3cccc(Cl)c3)C2=O)cc1 (stereo unspecified) | inconclusive: 35.5 µM [inhibitor, single point] | –
28 | O=C(COC(=O)c1ncc(Cl)c(Cl)c1Cl)NNC(=O)c1ccccc1 | inconclusive: 22.4 µM [inhibitor, single point] | –
29 | O=C(CNC1=NCCS1)c1c[nH]c2ccccc12 | – | inactive: -2.05%
30 | CCOC(=O)C1CCN(C(=O)COC(=O)C23CC4CC(CC(C4)C2)C3)CC1 | – | inactive: -16.8%
31 | CC(C)(C)NC(=O)C[C@H]1C[C@H](C(=O)N2CCCCC2)[C@@]2(C)c3[nH]c4ccc(Cl)cc4c3CCN2C1=O | inconclusive: 11.2 µM [inhibitor, partial curve] | –
32 | Cc1noc(C)c1COc1cccc(C(=O)N2CCc3ccccc32)c1 | – | inactive: -7.48%
33 | Nc1ccc(S(=O)(=O)NCC(=O)OCCOc2ccccc2)cc1[N+](=O)[O-] | inconclusive: 35.5 µM [inhibitor, single point] | –
34 | COc1ccc(S(=O)(=O)NC2CC(=O)N(c3cccc(F)c3)C2)cc1OC (stereo unspecified) | inconclusive: 5.62 µM [inhibitor, full curve, poor fit] | –
35 | O=C(/C=C/c1cccc([N+](=O)[O-])c1)NCCSCc1ccc(Cl)cc1 | inconclusive: 11.2 µM [inhibitor, partial curve, poor fit] | –
36 | CCCOC(=O)c1ccc(Oc2c(-c3ccc(OC)cc3O)n[nH]c2C)cc1 | inconclusive: 22.4 µM [inhibitor, single point] | –
37 | CC1(C)CC[C@]2(C(=O)O)CC[C@]3(C)C(=CCC4[C@@]5(C)CC[C@H](O)C(C)(C)C5[C@H](O)C[C@]43C)[C@@H]2C1 (stereo partly specified) | inconclusive: 12.6 µM [inhibitor, single point] | –
38 | CCOC(=O)c1sc(N2C(=O)C(O)=C(C(=O)c3ccc(C)o3)C2c2cccc([N+](=O)[O-])c2)nc1C (stereo unspecified) | – | inactive: 17.3%
39 | Cc1cccc(NC(=O)CCN2CCN(C/C=C/c3ccccc3)CC2)c1 | – | inactive: -5.21%
40 | CCCN(CCC)C(=O)CSc1c2c(nc3ccc(Cl)cc13)CCCC2 | – | inactive: -29.4%
41 | O=[N+]([O-])c1cc(-c2nc(-c3ccccc3)no2)ccc1NCc1cccnc1 | inconclusive: 6.31 µM [inhibitor, single point] | –
